Measurements: publication PMC8986528
No constants are given. Whether binding was seen depends on the method and setting. For some assays here: In cells and extracts the contact can be indirect. Some entries that bind do so weakly or less than the wild type. For some assays here: Tags and fused reporters may be left off the sequences shown.

The chains behind the UniProt entries cited, without tags or fusion partners. Where a name states a change or a piece, a line headed by the entry shows the natural chain unless it says otherwise.
UniProt Q99496: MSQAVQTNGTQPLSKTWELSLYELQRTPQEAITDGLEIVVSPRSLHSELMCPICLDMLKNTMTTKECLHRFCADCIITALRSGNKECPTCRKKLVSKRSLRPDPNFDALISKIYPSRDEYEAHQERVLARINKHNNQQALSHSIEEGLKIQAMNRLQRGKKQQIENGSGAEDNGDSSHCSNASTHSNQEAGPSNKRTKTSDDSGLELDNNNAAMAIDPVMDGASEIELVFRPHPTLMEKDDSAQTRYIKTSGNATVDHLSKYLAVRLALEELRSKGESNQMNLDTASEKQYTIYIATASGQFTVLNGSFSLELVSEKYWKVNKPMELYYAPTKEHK
UniProt Q8IZL8: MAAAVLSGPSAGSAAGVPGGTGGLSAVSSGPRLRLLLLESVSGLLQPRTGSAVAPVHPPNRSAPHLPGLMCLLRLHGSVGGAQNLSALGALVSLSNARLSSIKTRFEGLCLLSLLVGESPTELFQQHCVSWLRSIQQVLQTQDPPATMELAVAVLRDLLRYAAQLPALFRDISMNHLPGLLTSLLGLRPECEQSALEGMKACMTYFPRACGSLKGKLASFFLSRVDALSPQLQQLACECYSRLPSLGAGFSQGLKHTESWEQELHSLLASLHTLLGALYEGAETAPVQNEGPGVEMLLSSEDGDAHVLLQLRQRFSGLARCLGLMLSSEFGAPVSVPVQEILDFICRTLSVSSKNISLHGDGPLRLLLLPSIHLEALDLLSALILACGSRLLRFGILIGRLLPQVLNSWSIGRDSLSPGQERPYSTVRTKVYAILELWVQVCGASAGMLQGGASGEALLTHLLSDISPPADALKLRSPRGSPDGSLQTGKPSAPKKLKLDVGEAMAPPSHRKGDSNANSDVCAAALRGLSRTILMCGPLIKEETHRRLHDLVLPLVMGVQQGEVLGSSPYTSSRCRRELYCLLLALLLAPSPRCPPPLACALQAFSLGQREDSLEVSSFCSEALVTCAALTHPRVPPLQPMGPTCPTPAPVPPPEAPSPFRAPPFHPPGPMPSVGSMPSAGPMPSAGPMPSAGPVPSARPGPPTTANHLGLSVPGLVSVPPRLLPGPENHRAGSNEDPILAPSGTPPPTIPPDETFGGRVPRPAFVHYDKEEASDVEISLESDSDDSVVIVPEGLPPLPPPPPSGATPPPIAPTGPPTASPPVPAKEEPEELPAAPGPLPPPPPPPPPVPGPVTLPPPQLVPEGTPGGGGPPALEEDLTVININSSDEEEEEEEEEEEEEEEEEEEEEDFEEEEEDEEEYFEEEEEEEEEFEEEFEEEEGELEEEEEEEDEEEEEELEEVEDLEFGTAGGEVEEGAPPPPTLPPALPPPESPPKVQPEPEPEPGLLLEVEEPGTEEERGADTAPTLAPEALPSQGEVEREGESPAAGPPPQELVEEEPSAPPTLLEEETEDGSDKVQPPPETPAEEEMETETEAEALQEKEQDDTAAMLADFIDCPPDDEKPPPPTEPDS
UniProt Q9H4L4: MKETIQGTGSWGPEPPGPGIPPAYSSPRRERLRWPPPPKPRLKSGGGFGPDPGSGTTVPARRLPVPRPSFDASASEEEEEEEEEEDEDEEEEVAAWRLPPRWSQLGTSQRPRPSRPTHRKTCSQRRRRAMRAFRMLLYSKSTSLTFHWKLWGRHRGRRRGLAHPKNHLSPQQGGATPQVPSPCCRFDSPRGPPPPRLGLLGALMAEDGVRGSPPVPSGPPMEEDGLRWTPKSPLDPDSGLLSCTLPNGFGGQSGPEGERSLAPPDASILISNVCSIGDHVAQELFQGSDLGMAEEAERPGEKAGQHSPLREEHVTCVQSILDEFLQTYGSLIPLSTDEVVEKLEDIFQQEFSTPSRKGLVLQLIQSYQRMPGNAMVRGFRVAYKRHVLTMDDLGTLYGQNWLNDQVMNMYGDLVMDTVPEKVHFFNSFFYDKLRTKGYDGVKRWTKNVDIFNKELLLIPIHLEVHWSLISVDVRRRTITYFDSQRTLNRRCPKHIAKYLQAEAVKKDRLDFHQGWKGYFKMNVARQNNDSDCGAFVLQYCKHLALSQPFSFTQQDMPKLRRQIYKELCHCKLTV
UniProt Q13185: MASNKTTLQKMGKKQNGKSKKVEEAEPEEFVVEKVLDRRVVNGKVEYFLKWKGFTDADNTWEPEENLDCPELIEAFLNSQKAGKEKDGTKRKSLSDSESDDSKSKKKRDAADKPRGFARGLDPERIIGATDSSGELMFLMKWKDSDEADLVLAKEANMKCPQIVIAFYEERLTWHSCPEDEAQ
UniProt P83916: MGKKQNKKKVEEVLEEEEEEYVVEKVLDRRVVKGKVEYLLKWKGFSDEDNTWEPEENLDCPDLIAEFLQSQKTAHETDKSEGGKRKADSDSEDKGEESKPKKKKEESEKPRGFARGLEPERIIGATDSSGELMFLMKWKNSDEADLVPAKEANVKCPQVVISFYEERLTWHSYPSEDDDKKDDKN
UniProt P45973: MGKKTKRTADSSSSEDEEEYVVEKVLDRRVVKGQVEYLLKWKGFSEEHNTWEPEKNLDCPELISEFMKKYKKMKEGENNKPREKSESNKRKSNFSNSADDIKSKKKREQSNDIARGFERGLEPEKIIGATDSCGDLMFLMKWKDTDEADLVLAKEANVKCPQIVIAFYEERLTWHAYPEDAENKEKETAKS

Assays:
[1] = biological target: RING1B (human (endogenous in HEK 293FT)) (UniProt Q99496); test: co-IP; immunoprecipitation from the DNase I-digested chromatin fraction of HEK 293FT cells (IP buffer 250 mM NaCl, 1% Triton X-100), Dynabeads Protein A/G, immunoblot; Fig. 1f, g with or without 500 U/ml benzonase
[2] = biological target: T1, TEX10 (yeast two-hybrid fusion) (human) (UniProt Q9NXF1); test: two-hybrid; yeast two-hybrid, bait pGBKT7 and prey pGADT7, growth on quadruple dropout medium (SC -Trp, -Leu, -His, -Ade), 30 °C
T1 sequence: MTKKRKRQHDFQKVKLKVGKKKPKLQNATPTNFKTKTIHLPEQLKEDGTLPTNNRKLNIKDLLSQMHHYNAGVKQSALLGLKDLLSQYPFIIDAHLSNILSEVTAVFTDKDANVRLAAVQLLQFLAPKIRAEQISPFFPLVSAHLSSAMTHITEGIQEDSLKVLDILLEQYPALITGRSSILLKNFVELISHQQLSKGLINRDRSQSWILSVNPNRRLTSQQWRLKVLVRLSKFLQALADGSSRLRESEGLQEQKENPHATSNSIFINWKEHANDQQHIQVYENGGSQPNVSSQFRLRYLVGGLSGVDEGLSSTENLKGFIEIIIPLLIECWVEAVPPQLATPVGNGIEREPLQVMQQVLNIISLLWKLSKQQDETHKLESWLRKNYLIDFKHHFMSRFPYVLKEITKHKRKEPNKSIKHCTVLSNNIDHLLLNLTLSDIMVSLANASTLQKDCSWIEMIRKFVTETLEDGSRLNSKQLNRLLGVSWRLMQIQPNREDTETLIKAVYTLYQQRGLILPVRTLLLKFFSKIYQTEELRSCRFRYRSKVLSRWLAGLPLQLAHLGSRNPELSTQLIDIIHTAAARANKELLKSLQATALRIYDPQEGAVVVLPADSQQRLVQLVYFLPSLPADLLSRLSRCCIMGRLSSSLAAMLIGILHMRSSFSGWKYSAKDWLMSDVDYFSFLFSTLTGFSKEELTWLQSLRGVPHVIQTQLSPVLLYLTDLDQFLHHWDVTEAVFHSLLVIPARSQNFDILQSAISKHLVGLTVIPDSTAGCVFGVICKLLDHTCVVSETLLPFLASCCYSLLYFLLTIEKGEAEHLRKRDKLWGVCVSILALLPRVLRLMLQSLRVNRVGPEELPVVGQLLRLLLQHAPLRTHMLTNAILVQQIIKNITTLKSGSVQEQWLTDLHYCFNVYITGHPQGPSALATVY

[3] = biological target: T2, WDR18 (yeast two-hybrid fusion) (human) (UniProt Q9BV38); test: as above
T2 sequence: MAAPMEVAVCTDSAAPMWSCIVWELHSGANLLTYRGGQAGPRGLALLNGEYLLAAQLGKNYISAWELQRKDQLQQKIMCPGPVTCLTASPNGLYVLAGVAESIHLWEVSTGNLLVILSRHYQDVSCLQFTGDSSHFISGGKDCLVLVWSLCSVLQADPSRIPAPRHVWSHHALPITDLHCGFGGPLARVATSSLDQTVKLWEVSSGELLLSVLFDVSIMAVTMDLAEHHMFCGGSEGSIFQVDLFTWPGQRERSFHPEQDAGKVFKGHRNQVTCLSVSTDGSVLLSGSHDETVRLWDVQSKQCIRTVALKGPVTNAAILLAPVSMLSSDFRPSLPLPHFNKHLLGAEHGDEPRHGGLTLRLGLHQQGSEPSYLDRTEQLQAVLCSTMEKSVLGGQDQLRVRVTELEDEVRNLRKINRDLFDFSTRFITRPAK

[4] = biological target: PELP1 (yeast two-hybrid fusion) (human) (UniProt Q8IZL8); test: as above
[5] = biological target: T3, NOL9 (yeast two-hybrid fusion) (human) (UniProt Q5SY16); test: as above
T3 sequence: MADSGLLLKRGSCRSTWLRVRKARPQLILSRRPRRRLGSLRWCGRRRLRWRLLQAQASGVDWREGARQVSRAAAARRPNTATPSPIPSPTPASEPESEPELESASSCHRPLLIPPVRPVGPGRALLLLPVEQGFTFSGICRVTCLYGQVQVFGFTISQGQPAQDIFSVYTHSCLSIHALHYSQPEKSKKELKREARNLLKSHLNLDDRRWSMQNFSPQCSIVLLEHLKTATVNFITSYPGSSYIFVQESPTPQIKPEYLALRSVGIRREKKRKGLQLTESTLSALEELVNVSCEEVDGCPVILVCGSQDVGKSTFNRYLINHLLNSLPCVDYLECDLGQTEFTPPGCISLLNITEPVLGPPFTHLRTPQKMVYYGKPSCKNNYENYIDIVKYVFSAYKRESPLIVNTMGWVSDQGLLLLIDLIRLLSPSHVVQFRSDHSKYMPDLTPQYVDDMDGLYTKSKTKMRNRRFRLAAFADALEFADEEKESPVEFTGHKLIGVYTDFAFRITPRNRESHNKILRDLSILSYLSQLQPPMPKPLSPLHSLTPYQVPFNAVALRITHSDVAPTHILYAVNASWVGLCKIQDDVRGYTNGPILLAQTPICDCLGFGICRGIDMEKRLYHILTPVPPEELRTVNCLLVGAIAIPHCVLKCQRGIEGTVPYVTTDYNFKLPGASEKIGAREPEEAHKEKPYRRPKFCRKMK

[6] = biological target: RING1B(Q137A/Q138A) (human (endogenous in HEK 293FT)) (UniProt Q99496); test: co-IP; immunoprecipitation from the DNase I-digested chromatin fraction of HEK 293FT cells (IP buffer 250 mM NaCl, 1% Triton X-100), Dynabeads Protein A/G, immunoblot; Fig. 1f, g with or without 500 U/ml benzonase

SENP3 (from UniProt Q9H4L4 1-574)
binding [1]: binds

PELP1 (from UniProt Q8IZL8 1-1130)
binding [1]: binds

HP1γ (CBX3), yeast two-hybrid fusion (from UniProt Q13185 1-183)
binding [2]: no binding
binding [3]: no binding
binding [4]: no binding
binding [5]: no binding

HP1β (CBX1), yeast two-hybrid fusion (from UniProt P83916 1-185)
binding [2]: no binding
binding [3]: no binding
binding [4]: no binding
binding [5]: no binding

HP1α (CBX5), yeast two-hybrid fusion (from UniProt P45973 1-191)
binding [2]: no binding
binding [3]: no binding
binding [4]: no binding
binding [5]: no binding

B1: NOL9 (protein, UniProt Q5SY16 1-702)
chain: MADSGLLLKRGSCRSTWLRVRKARPQLILSRRPRRRLGSLRWCGRRRLRWRLLQAQASGVDWREGARQVSRAAAARRPNTATPSPIPSPTPASEPESEPELESASSCHRPLLIPPVRPVGPGRALLLLPVEQGFTFSGICRVTCLYGQVQVFGFTISQGQPAQDIFSVYTHSCLSIHALHYSQPEKSKKELKREARNLLKSHLNLDDRRWSMQNFSPQCSIVLLEHLKTATVNFITSYPGSSYIFVQESPTPQIKPEYLALRSVGIRREKKRKGLQLTESTLSALEELVNVSCEEVDGCPVILVCGSQDVGKSTFNRYLINHLLNSLPCVDYLECDLGQTEFTPPGCISLLNITEPVLGPPFTHLRTPQKMVYYGKPSCKNNYENYIDIVKYVFSAYKRESPLIVNTMGWVSDQGLLLLIDLIRLLSPSHVVQFRSDHSKYMPDLTPQYVDDMDGLYTKSKTKMRNRRFRLAAFADALEFADEEKESPVEFTGHKLIGVYTDFAFRITPRNRESHNKILRDLSILSYLSQLQPPMPKPLSPLHSLTPYQVPFNAVALRITHSDVAPTHILYAVNASWVGLCKIQDDVRGYTNGPILLAQTPICDCLGFGICRGIDMEKRLYHILTPVPPEELRTVNCLLVGAIAIPHCVLKCQRGIEGTVPYVTTDYNFKLPGASEKIGAREPEEAHKEKPYRRPKFCRKMK
binding [1]: binds

B2: PHC2 (protein, UniProt Q8IXK0 1-858)
chain: MENELPVPHTSSSACATSSTSGASSSSGCNNSSSGGSGRPTGPQISVYSGIPDRQTVQVIQQALHRQPSTAAQYLQQMYAAQQQHLMLQTAALQQQHLSSAQLQSLAAVQQASLVSNRQGSTSGSNVSAQAPAQSSSINLAASPAAAQLLNRAQSVNSAAASGIAQQAVLLGNTSSPALTASQAQMYLRAQMLIFTPTATVATVQPELGTGSPARPPTPAQVQNLTLRTQQTPAAAASGPTPTQPVLPSLALKPTPGGSQPLPTPAQSRNTAQASPAGAKPGIADSVMEPHKKGDGNSSVPGSMEGRAGLSRTVPAVAAHPLIAPAYAQLQPHQLLPQPSSKHLQPQFVIQQQPQPQQQQPPPQQSRPVLQAEPHPQLASVSPSVALQPSSEAHAMPLGPVTPALPLQCPTANLHKPGGSQQCHPPTPDTGPQNGHPEGVPHTPQRRFQHTSAVILQLQPASPPQQCVPDDWKEVAPGEKSVPETRSGPSPHQQAIVTAMPGGLPVPTSPNIQPSPAHETGQGIVHALTDLSSPGMTSGNGNSASSIAGTAPQNGENKPPQAIVKPQILTHVIEGFVIQEGAEPFPVGRSSLLVGNLKKKYAQGFLPEKLPQQDHTTTTDSEMEEPYLQESKEEGAPLKLKCELCGRVDFAYKFKRSKRFCSMACAKRYNVGCTKRVGLFHSDRSKLQKAGAATHNRRRASKASLPPLTKDTKKQPTGTVPLSVTAALQLTHSQEDSSRCSDNSSYEEPLSPISASSSTSRRRQGQRDLELPDMHMRDLVGMGHHFLPSEPTKWNVEDVYEFIRSLPGCQEIAEEFRAQEIDGQALLLLKEDHLMSAMNIKLGPALKIYARISMLKDS
binding [1]: binds
binding [6]: binds

B3: RYBP (protein, UniProt Q8N488 1-228)
chain: MTMGDKKSPTRPKRQAKPAADEGFWDCSVCTFRNSAEAFKCSICDVRKGTSTRKPRINSQLVAQQVAQQYATPPPPKKEKKEKVEKQDKEKPEKDKEISPSVTKKNTNKKTKPKSDILKDPPSEANSIQSANATTKTSETNHTSRPRLKNVDRSTAQQLAVTVGNVTVIITDFKEKTRSSSTSSSTVTSSAGSEQQNQSSSGSESTDKGSSRSSTPKGDMSAVNDESF
binding [1]: binds
binding [6]: binds

B4: YAF2 (protein, UniProt Q8IY57 1-180)
chain: MGDKKSPTRPKRQPKPSSDEGYWDCSVCTFRNSAEAFKCMMCDVRKGTSTRKPRPVSQLVAQQVTQQFVPPTQSKKEKKDKVEKEKSEKETTSKKNSHKKTRPRLKNVDRSSAQHLEVTVGDLTVIITDFKEKTKSPPASSAASADQHSQSGSSSDNTERGMSRSSSPRGEASSLNGESH
binding [1]: binds
binding [6]: binds

B5: PCGF6 (protein, UniProt Q9BYE7 1-350)
chain: MEGVAVVTAGSVGAAKTEGAAALPPPPPVSPPALTPAPAAGEEGPAPLSETGAPGCSGSRPPELEPERSLGRFRGRFEDEDEELEEEEELEEEEEEEEEDMSHFSLRLEGGRQDSEDEEERLINLSELTPYILCSICKGYLIDATTITECLHTFCKSCIVRHFYYSNRCPKCNIVVHQTQPLYNIRLDRQLQDIVYKLVINLEEREKKQMHDFYKERGLEVPKPAVPQPVPSSKGRSKKVLESVFRIPPELDMSLLLEFIGANEGTGHFKPLEKKFVRVSGEATIGHVEKFLRRKMGLDPACQVDIICGDHLLEQYQTLREIRRAIGDAAMQDGLLVLHYGLVVSPLKIT
binding [1]: binds
binding [6]: binds
